Assay results taken from PMC12136788.
The other results are listed elsewhere or left out.

T1: UNK ZnF1-3 (human, UniProt Q9C0B0 31-174)
T1 sequence: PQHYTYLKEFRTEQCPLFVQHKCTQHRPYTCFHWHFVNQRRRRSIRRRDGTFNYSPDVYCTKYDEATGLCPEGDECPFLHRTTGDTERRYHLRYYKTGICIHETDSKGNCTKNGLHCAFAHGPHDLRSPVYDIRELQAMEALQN

B1: chr1:63226128:63226129:+_ENSMUSG00000025967_ENSMUST00000135877|mus_hu|FALSE|FALSE (ssRNA)
RNA: GGGAGUUCUACAGUCCGACGAUCCUCAAAAGCAGUGAUCUGCUCCUCCAGCAUAUCUGUUCCAACUUUAUCAUCUUCAACUACACACUGUAUUUGAAGUUUCUUAAUUCCGUAUCCCACUGGAACUAGUUUAGAUGAGCCCCACAACAGAGGAUUGAGCAUCA
B2: chr4:40680873:40680874:+_ENSMUSG00000028410_ENSMUST00000030118|mus_hu|motif|central (ssRNA)
RNA: GGGAGUUCUACAGUCCGACGAUCCUGAUACCCAGAUUUAAGCAUGUGAACAUAUGAGACUUUUAAACAUACAAUUAAAGCGGUUCAUCAUAAUUUGCUAUACUACCAACAUAACUUUGGAGCGAAAGUCAAAUGGUUUAAAGUCAACAGAGGAUUGAGCAUCA
B3: chr6:97339032:97339033:-_ENSG00000123545_ENST00000316149|hu_hu|FALSE|FALSE (ssRNA)
RNA: GGGAGUUCUACAGUCCGACGAUCUCUUCAUUUUGAUCGUAUUGCUUUCUUGUCUUCAGGAGGGAAGAUUUCGACUUCAAAAGUAACAAAAUAUUUAAGAAGAGAAUUCACAUCUUUCUGUUCUAACUGGUAUUCCUGCAUUAUCAACAGAGGAUUGAGCAUCA
B4: chr18:13845789:13845790:-_ENSMUSG00000024420_ENSMUST00000025288|mus_mus|FALSE|FALSE (ssRNA)
RNA: GGGAGUUCUACAGUCCGACGAUCAGAACCAUGGGGCAGUGACCCUGCGUUGUGAUGCUGGAGAUGUGGCUGUCACAGGCUAGUCCAUUGGUGACAAGGGGUCACACAUCCAUCAGUCCAGGUUGCAUUUUUCUUACCUCAAAGCAACAGAGGAUUGAGCAUCA
B5: 21681251_21699202_537_CDS_ENSG00000092199_ENST00000553300|human|control|control (ssRNA)
RNA: GGGAGUUCUACAGUCCGACGAUCUACACGUGCUGGGUAACUGUACAUCCUAUCAUAAUAGUCCCGUUGAAAGUCAUAGUCCAAGUCAAAAGAGGAGCCGUACAUCUCCGCUGCAGAUCGUUUCACACCUGCUUUUCCUCGGUUCAACAGAGGAUUGAGCAUCA
B6: 69550059_69550179_5424_3pUTR_ENSG00000198380_ENST00000361060|human|control|control (ssRNA)
RNA: GGGAGUUCUACAGUCCGACGAUCUGCCUUCCAAUGAACCUAGUCUUUGCUAGUGAUGAGUCCAUCUGGGGACAAAUACUGCUUUAAAGAUGAUGUAAUUUUCAAUGCCAACCACAGUGACUUUCCCAUAAUAGGUAUUAAUAACAACAGAGGAUUGAGCAUCA
B7: chr9:91930108:91930109:+_ENSG00000123975_ENST00000314355|hu_hu|FALSE|FALSE (ssRNA)
RNA: GGGAGUUCUACAGUCCGACGAUCACCAAGUCUCCUCCACUCCUCUUCAGACAUCAGAUGAGUUUUAGGUACUUGUUUGGAAAGUUCUCUGGGUAACAUAACAUGCCGGUACUCGUAGUGUUCGUCGAAGUACUUGUCCGAGUACAACAGAGGAUUGAGCAUCA
B8: chr1:229634031:229634032:-_ENSG00000069248_ENST00000261396|hu_hu|FALSE|FALSE (ssRNA)
RNA: GGGAGUUCUACAGUCCGACGAUCCUGAUGAAUCUUUCCUGAGCUCUCAGGUAUCAACCGAAUUAGUUGGCUUCCUGAUGAAGACAAAAUAAAACUUCCUCCCUGCACUGCUGUUAGGAAACUGUAAGUCUUAUCACCUCCCGACAACAGAGGAUUGAGCAUCA
B9: 126726007_126726127_2122_CDS_ENSMUSG00000043872_ENSMUST00000106102|mouse|control|control (ssRNA)
RNA: GGGAGUUCUACAGUCCGACGAUCGUGUAGUGCCUCGCGGAGCUCCUUCACCUCCUUACAGAAGCUAAUCACCGCUAACUCCAAAAAAUGGGCGUGACAAUGCACAUAGAGAGCUCUUGGCUCUUCCUUCUUGAAUUCUGCUACCAACAGAGGAUUGAGCAUCA
B10: 51746606_51747526_668_3pUTR_ENSMUSG00000008140_ENSMUST00000118515|mouse|control|control (ssRNA)
RNA: GGGAGUUCUACAGUCCGACGAUCGGAUGAGGUGCCAGUAUUUGGCAAAGAAAGACUUCUGCUCCUGUGGGUUCUUGGCCUUCUGGGCCUGCUCCAUCUCCAGGCGCUCAAUGAAGGCUGCAGUCUCGGGGCCUGGAGCAGUGCCAACAGAGGAUUGAGCAUCA
B11: chr11:87793471:87793472:-_ENSMUSG00000020483_ENSMUST00000020775|mus_mus|mus_mus_mus_hu_False|18_18 (ssRNA)
RNA: GGGAGUUCUACAGUCCGACGAUCUGGACUUGAAAAUAAAAGAAUAAGCUGGAUCCCCCACCCCCCCACAUUGUCAACCCUACACGAGAGUUUUGAAGGCGACUCAUGAAAAUCAGCCUCAAUUGGCGCAAUGACCACCCCACCCAACAGAGGAUUGAGCAUCA
B12: chr7:136912400:136912401:-_ENSG00000105894_ENST00000348225|hu_hu|motif|central (ssRNA)
RNA: GGGAGUUCUACAGUCCGACGAUCUUUUGUUUAGUAUAUAUUUUUCUCAAUUGGGAAAAAAAUCUAGGUGAAAAAAAUUACCGGACAAGAGAAGUAGUUUACAUAGUCAUAACAUUUAAAUUGCUGCCCAAAAAAUGUAAAAAACAACAGAGGAUUGAGCAUCA
B13: chr7:156476592:156476593:-_ENSG00000105983_ENST00000359422|hu_hu|motif|central (ssRNA)
RNA: GGGAGUUCUACAGUCCGACGAUCUCUACAGAAGAAUGCGCUGUUCUAUAUGUCUGUAAGGAAUCUGCACUUAACUGGAAACGGCAGGGUCCAUCAGAAAGUUAAAUUUAAAAAAGAUCAGCCAUAGCCAAGUUCUUCGUAGAUCAACAGAGGAUUGAGCAUCA
B14: 73995968_73997693_220_CDS_ENSMUSG00000074247_ENSMUST00000124745|mouse|control|control (ssRNA)
RNA: GGGAGUUCUACAGUCCGACGAUCCGUCUUUUCUGUCACAAUGAUCUGUUCUGACGGGUACUCUCGGGUCGGCAGGUAUACUGAGGGACGGCGGUUCGAGGCCUUGCACACAGAGUCCGCGUGGAACCUGCUGAAGUUGCUCUUCAACAGAGGAUUGAGCAUCA

Target: T1, UNK ZnF1-3
Assay: nsRBNS (natural sequence RNA bind-n-seq); RBNS binding buffer (assumed for nsRBNS): 25 mM Tris pH 7.5, 150 mM KCl, 3 mM MgCl2, 0.01% Triton X-100, 500 ug/ml BSA, 20 U/ml SUPERase-In, 4 C; UNK is unkempt and MSI1 is Musashi-1; names of the RNAs are library labels; protein concentration not given here; high values mean tight binding

Binder | binding signal
B1 | 0.599 enrichment R
B2 | 0.929 enrichment R
B3 | 0.856 enrichment R
B4 | 0.901 enrichment R
B5 | 1.09 enrichment R
B6 | 0.966 enrichment R
B7 | 0.551 enrichment R
B8 | 1 enrichment R
B9 | 0.858 enrichment R
B10 | 0.914 enrichment R
B11 | 1.7 enrichment R
B12 | 1.7 enrichment R
B13 | 1.71 enrichment R
B14 | 0.792 enrichment R
